Whole data set: some 33,000 sequences, median “E-score (-0.5 to 0.5)” near -0.035, cut for the highest 2% near 0.35. This is one part of the list.
Target: T1, Pdr3 (UniProt P33200)
T1 sequence: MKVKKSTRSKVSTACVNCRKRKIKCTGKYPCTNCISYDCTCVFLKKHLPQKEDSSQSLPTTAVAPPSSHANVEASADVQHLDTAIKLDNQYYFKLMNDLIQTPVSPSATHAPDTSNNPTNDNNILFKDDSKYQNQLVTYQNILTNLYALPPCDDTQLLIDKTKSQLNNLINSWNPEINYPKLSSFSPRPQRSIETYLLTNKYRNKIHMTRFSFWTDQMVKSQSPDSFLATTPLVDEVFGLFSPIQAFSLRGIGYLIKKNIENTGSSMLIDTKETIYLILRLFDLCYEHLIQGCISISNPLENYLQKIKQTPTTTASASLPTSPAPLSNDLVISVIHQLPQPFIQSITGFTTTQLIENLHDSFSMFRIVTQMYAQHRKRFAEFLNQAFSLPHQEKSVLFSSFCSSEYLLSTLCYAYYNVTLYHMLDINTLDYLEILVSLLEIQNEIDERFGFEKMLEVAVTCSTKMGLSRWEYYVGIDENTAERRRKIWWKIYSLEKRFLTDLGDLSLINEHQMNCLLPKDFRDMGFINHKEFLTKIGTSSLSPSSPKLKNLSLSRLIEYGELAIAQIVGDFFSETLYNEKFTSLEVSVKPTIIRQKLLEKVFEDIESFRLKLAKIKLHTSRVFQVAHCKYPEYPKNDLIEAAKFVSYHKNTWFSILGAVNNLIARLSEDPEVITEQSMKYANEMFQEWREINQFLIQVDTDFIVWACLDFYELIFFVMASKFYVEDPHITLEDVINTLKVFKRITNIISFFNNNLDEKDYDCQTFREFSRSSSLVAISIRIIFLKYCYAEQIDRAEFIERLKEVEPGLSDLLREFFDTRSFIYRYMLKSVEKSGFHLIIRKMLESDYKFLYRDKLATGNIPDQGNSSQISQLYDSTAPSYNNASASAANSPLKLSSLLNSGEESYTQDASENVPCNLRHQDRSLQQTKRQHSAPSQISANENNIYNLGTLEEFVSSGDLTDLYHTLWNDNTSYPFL
Assay: PBM E-score (8-mer binding enrichment) (E-score (-0.5 to 0.5)); higher = stronger / more preferred TF binding; most listed sequences are background and not binding sites
Details: protein concentration: 200 nM; construct: GST-full length
How it was run: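 Bound GST-tagged yeast transcription factors, applied at about 100-200 nM to double-stranded universal all-10-mer Agilent arrays, were detected with fluorescent anti-GST. Scans were normalised with masliner. A modified Wilcoxon-Mann-Whitney statistic, the E-score, was assigned to each ungapped eight-base word pooled with its reverse complement by the Universal PBM Analysis Suite.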

Sequence	PBM E-score
ATTGAAAT	-0.0141
CCGGCGCG	0.314
TATGTAAA	-0.0204
ATCATCAG	-0.0703
AGTATCAA	0.159
CCGCTTCG	-0.00951
CGGTTGGA	0.0147
AACAAGCA	-0.103
CAGAAGCG	0.087
CGTGCGGC	0.0733
GTTTTAAA	-0.0722
GCGGGTGA	0.26
GTGTCCAA	0.0112
GTAATTAC	0.0427
ACCGTAGC	-0.1
ACCTCATG	-0.284
GCCGCAGC	0.0881
GGAGAATA	0.103
CAGGGAGG	-0.249
CCACGACA	0.0954
ACGCTGGA	-0.019
CTGTTATC	-0.0181
GATATTTA	0.0188
CGTCAACC	0.00812
TAGTTGCA	-0.0621

Sequence	PBM E-score
TCTACGAA	-0.271
TCTGCAGA	-0.133
ATTTTCCC	0.151
GGCACACC	-0.0278
CGACTAAG	-0.0883
GTATTTAA	-0.0813
GCCTCGAC	-0.101
ACGTAAGG	-0.223
ATAGATAT	0.117
ACAACCTG	-0.244
ATACACCA	-0.153
AGTGGGAG	-0.149
AGTGTCGC	-0.0529
ATTTGATA	-0.0459
AGCATACT	-0.115
AGATCTAG	-0.251
CCATACTA	0.0554
CTCGTACC	-0.0678
AAGTAAAT	-0.0857
CTGCTTTC	0.0128
ATGGACAC	0.0372
ACTGAACA	0.00031
GAGGATAA	-0.137
TACACATA	-0.0188
AGGTAGCG	-0.116

Sequence	PBM E-score
AGGGCTGA	-0.205
AGCAAGAG	-0.245
GCATATGC	-0.115
ACGCCGGC	0.385
CAGGATGC	0.0489
AGCTGTGC	-0.202
AAGCATGC	-0.172
GAAAAGAA	0.136
AGGGCCGA	0.0158
CGGTAGCA	-0.0781
ACGCGGCA	0.0238
AATAGCCC	-0.0859
ATTGGTTA	0.0538
CGGAAATA	0.45
AACTGCTT	-0.134
ACGCCGCG	0.265
TACGCGGA	0.255
CGAAATTC	0.161
AAGTACCT	-0.161
ACGATCAC	-0.107
ATGCTGGC	-0.142
AGAATGTA	-0.168
CCCGAACA	0.166
GGTTGCAA	0.0214
ACTGATCC	0.00609

Sequence	PBM E-score
AACCACCC	-0.00213
GACTATAA	-0.132
CTGAAACC	0.136
AAACAAAT	0.00139
GCAAAACC	0.0234
AATCACAG	-0.141
CAATTACG	-0.167
CTACCGAC	-0.0406
GCCCAGCC	-0.00261
AAAACGGT	-0.151
ATTTTGAC	0.0233
CGTCCCGA	0.199
CCCTAGAA	-0.243
CAGAACGG	0.0368
ACACGTAT	-0.116
ATAGGTCA	-0.151
AGGGGGTG	-0.145
CGCCTGAA	0.0126
GAATTTAC	0.00207
ACAATGAC	-0.154
CTATTTCC	0.203
CAGACTGA	-0.0851
CACACCCC	-0.0666
ACATACGT	-0.159
AATAACTG	-0.0475

Sequence	PBM E-score
GCTCGAGC	0.236
ACAGGCTG	-0.268
ACGGGAAA	0.277
GACAAGGC	-0.118
GCCTTCGC	0.138
CGTGCGAA	0.0161
CCATATCC	0.145
AGGGCGAT	-0.24
TATATACA	-0.0274
ACCCGGCG	0.276
AGCAGACT	-0.189
ACCCAAAA	-0.0452
CAAGGCAA	-0.188
GGTACGTA	-0.155
ACATGTAT	-0.0119
CGCAAGCA	-0.0779
CGCCCTCA	-0.196
AGATGACC	-0.0425
ATGAAGGC	0.114
CTTAACCA	-0.141
TAAACGAA	-0.0987
ACGCGAAT	0.0758
GGACTAGA	0.0312
AACTTCTT	-0.139
CATGTGAC	-0.328

Sequence	PBM E-score
AACATAGA	-0.00192
ACCGCAGG	0.134
AACAATCT	-0.154
AAGGTAAA	-0.0404
ACCATTAT	-0.103
CGCGTCGC	0.0878
TGACATAA	0.0239
CACGATGG	-0.012
AATGCGAG	0.0414
GCACCTAA	-0.0848
AGTCGGTG	-0.0838
TATTAACA	0.0492
AGAAGTGG	-0.055
GAACTCAA	-0.00987
CTGTGCTC	0.0296
AATTTTGT	-0.0902
AGCACGAC	-0.093
AATTCAGC	0.0247
ATCCTGGC	-0.0357
CACAGTCC	-0.0587
GAAAGGGA	-0.144
GCACTAAC	-0.0428
AGCGGCTG	-0.0985
AACTCTCG	-0.0123
TGTGCTAA	0.217

Sequence	PBM E-score
GGACTTTA	0.137
AACCTTAG	-0.18
GGACCCGA	0.286
GTGACAAA	-0.0355
TAAATACA	0.0167
TCGTGAAA	-0.141
ACCAACGG	0.165
AGCGGTTG	-0.0205
CGGCAGAC	0.181
AGCAGGGG	-0.0945
ATGGTGCC	0.0575
CCCCGCCA	0.247
AGTATGCG	-0.0538
CAGTTATG	-0.151
AGGCGTCG	0.135
GCACCCGA	0.222
AAATAATA	0.166
AACGTGCT	-0.213
AGACTTAT	-0.334
AACTCCTC	-0.0525
GCGGCATA	0.16
GTTCAAGA	-0.0184
GCCTACCC	-0.155
ATCGGAAA	0.407
GCCCTACC	-0.101

Sequence	PBM E-score
CCGCCGTC	0.168
ATGGAGCA	-0.0361
ATGGTGGG	-0.126
CGCGCAGA	0.162
TACTTACA	-0.216
TAATGAAA	-0.0901
AGGACATC	0.178
CAGGCGAG	-0.125
ACCAGTGA	-0.12
GAATTGAA	0.108
CTAGCCTC	-0.162
AATCGGAC	0.212
CCACTGTA	-0.198
ACTGAGCG	-0.185
GGCGTGAA	0.017
CAGCGGCA	-0.0446
AAGTCCAC	-0.215
GCGTATCA	-0.0123
TGACAGCA	-0.0493
CACACTAG	0.00957
ACGACGTG	-0.26
GGCTACAA	-0.0232
ACGAATGA	0.0936
CGACTTGA	-0.18
CGCTCGTC	-0.169

Sequence	PBM E-score
ACTGCACG	-0.0631
GTTCTAAA	0.0215
CGGAGTTA	0.33
TCGAGGAA	-0.0817
CCCCGAGA	0.0629
GCCTACAA	-0.0093
AACACTTG	-0.0557
ACGTTTCC	0.156
CGTCCGCA	0.0646
GATGATTA	-0.0268
CGCTCCAA	-0.0785
AAAGCTGC	-0.0314
ACCGGGCA	0.102
ATGCCTCG	-0.0591
CATAAGAG	-0.135
AGAAGCTC	0.103
AACGGTGG	-0.11
AGAGAGGG	-0.154
CATGCAGC	-0.129
